Test results reported in patent EP0243717A1 (priority 1986, dated 1987).

Assays:
[1] = system: Treponema hyodysenteriae DJ70 P-3; conditions: for Lesion: mice with lesion/mice; for Curative ratios: Table 2
Experimental: Groups of seven-week old mice (CF-1) are orally infected with Treponema hyodensenteriae DJ 70 P-3 as the test pathogen, each group consisting of five mice. The mice are fasted beginning one day before the bacterial infection, and hygromycin A is administered to them in drinking water at the dosages of 60, 30, 15, 7.5, 3.7, 1.8 and 0.9 µg/ml. The bacterial infection is effected on the first and second days after fasting. The drug is administered through drinking water for six consecutive days after the first bacterial infection. On the sixth day of the administration the test animals are necropsied, and presence of Treponema hyodysenteriae in the contents of their digestive organs are determined by three days' cultivation in blood agar. As the positive control, Lincomycin (60-3.7 pg/ml) Dynamutilin, lankacidin C and olaquindox (60-7.5 µg/ml, respectively) are administered through drinking water at the concentrations indicated. As the negative control, untreated group allowed to freely drink water.

[2] = system: A. laidlawii KB 175 (Bm-1); assay: microbe, parasite or virus in culture; conditions: Acholeplasma laidlawii; Medium D; read-out: MIC
Excerpt: (§1) For reference, the minimum growth inhibition concentrations (MIC) to various bacteria of above five drugs and Lankacidin C are shown in Table 3.

[3] = system: Acholeplasma laidlawii KB 174 (PG-8); assay: microbe, parasite or virus in culture; conditions: Acholeplasma laidlawii; Medium D; read-out: MIC
Excerpt: as §1

Aspergillus niger KF-105 = assay: microbe, parasite or virus in culture; conditions: Aspergillus niger, KF105; Medium E; read-out: MIC
Excerpt: as §1

[4] = system: B. cereus KB 143 (IFO 3001); assay: microbe, parasite or virus in culture; conditions: Bacillus cereus, IFO3001; Medium A; read-out: MIC
Excerpt: as §1

[5] = system: B. megaterium KB 144 (IFO 12108); assay: microbe, parasite or virus in culture; conditions: Priestia megaterium, IFO12108; Medium A; read-out: MIC
Excerpt: as §1

[6] = system: Bacillus subtilis KB 211 (ATCC 6633); assay: microbe, parasite or virus in culture; conditions: Bacillus subtilis, ATCC6633; Medium A; read-out: MIC
Excerpt: as §1

[7] = system: C. difficile KB 258 (ATCC 9689); assay: microbe, parasite or virus in culture; conditions: Clostridioides difficile, ATCC9689; Medium B; read-out: MIC
Excerpt: as §1

Candida albicans KF-1 = assay: microbe, parasite or virus in culture; conditions: Candida albicans, KF1; Medium E; read-out: MIC
Excerpt: as §1

[8] = system: E. coli KB 198 (ML^r,LCM^s); assay: microbe, parasite or virus in culture; conditions: Escherichia coli
Excerpt: as §1

[9] = system: Escherichia coli KB 213 (NIHJ); assay: microbe, parasite or virus in culture; conditions: Escherichia coli; Medium A; read-out: MIC
Excerpt: as §1

[10] = system: Fusobacterium varium KB 234 (ATCC 8501); assay: microbe, parasite or virus in culture; conditions: Fusobacterium varium, ATCC8501; Medium B; read-out: MIC
Excerpt: as §1

[11] = system: Haemophilus pleuropneumoniae KB 282; assay: microbe, parasite or virus in culture; conditions: Actinobacillus pleuropneumoniae, KB282; Medium C; read-out: MIC
Excerpt: as §1

[12] = system: Klebsiella pneumoniae KB 214 (IFO 10031); assay: microbe, parasite or virus in culture; conditions: Klebsiella pneumoniae, IFO10031; Medium A; read-out: MIC
Excerpt: as §1

[13] = system: M. gallisepticum KB 171 (S-6); assay: microbe, parasite or virus in culture; conditions: Mycoplasmoides gallisepticum; Medium D; read-out: MIC
Excerpt: as §1

[14] = system: M. gallisepticum KB 172 (333-P); assay: microbe, parasite or virus in culture; conditions: Mycoplasmoides gallisepticum; Medium D; read-out: MIC
Excerpt: as §1

M. pneumoniae KB-173 = assay: microbe, parasite or virus in culture; conditions: Mycoplasmoides pneumoniae, KB173; Medium D; read-out: MIC
Excerpt: as §1

[15] = system: Micrococcus luteus KB 212 (ATCC 9341); assay: microbe, parasite or virus in culture; conditions: Micrococcus luteus, ATCC9341; Medium A; read-out: MIC
Excerpt: as §1

[16] = system: Mucor racemosus KF 223 (IFO 4581); assay: microbe, parasite or virus in culture; conditions: Mucor racemosus, IFO4581; Medium E; read-out: MIC
Excerpt: as §1

[17] = system: Mycobacterium smegmatis KB 42 (ATCC 607); assay: microbe, parasite or virus in culture; conditions: Mycolicibacterium smegmatis, ATCC607; Medium A; read-out: MIC
Excerpt: as §1

[18] = system: Mycoplasma gallisepticum KB 170 (KP-13); assay: microbe, parasite or virus in culture; conditions: Mycoplasmoides gallisepticum; Medium D; read-out: MIC
Excerpt: as §1

[19] = system: Penicillium herquei KE 227 (IFO 4647); assay: microbe, parasite or virus in culture; conditions: Penicillium herquei, IFO4647; Medium E; read-out: MIC
Excerpt: as §1

[20] = system: Proteus vulgaris KB 127 (IFO 3167); assay: microbe, parasite or virus in culture; conditions: Proteus vulgaris, IFO3167; Medium A; read-out: MIC
Excerpt: as §1

[21] = system: Pseudomonas aeruginosa KB 115 (IFO 3080); assay: microbe, parasite or virus in culture; conditions: Pseudomonas aeruginosa, IFO3080; Medium A; read-out: MIC
Excerpt: as §1

[22] = system: S. aureus KB 199 (ML^r,TC^r); assay: microbe, parasite or virus in culture; conditions: Staphylococcus aureus
Excerpt: as §1

S. aureus KB 283 (MRSA) = assay: microbe, parasite or virus in culture; conditions: Staphylococcus aureus, MRSA
Excerpt: as §1

S. aureus KB 285 (MRSA) = assay: microbe, parasite or virus in culture; conditions: Staphylococcus aureus, MRSA
Excerpt: as §1

[23] = system: S. aureus KB 34 (FDA 209p); assay: microbe, parasite or virus in culture; conditions: Staphylococcus aureus, FDA209P; Medium A; read-out: MIC
Excerpt: as §1

[24] = system: S. cerevisiae KF 237 (ATCC 9763); assay: microbe, parasite or virus in culture; conditions: Saccharomyces cerevisiae, ATCC9763; Medium E; read-out: MIC
Excerpt: as §1

Saccharomyces sake KF 26 = assay: microbe, parasite or virus in culture; conditions: Saccharomyces, KF26; Medium E; read-out: MIC
Excerpt: as §1

[25] = system: Staphylococcus aureus KB 210 (ATCC 6538p); assay: microbe, parasite or virus in culture; conditions: Staphylococcus aureus, ATCC6538P; Medium A; read-out: MIC
Excerpt: as §1

[26] = system: Treponema hyodysenteriae B 78; assay: microbe, parasite or virus in culture; conditions: Brachyspira hyodysenteriae, B78; Medium F; read-out: MIC
Excerpt: as §1

[27] = system: Treponema hyodysenteriae DJ 70 P-3; assay: microbe, parasite or virus in culture; conditions: Brachyspira hyodysenteriae, DJ70P3; Medium F; read-out: MIC
Excerpt: as §1

[28] = system: Trichophyton interdigitale KF 62; assay: microbe, parasite or virus in culture; conditions: Trichophyton interdigitale, KF62; Medium E; read-out: MIC
Excerpt: as §1

[29] = system: pasteurella hemolytica KB 281; assay: microbe, parasite or virus in culture; conditions: Pasteurella, KB281; Medium C; read-out: MIC
Excerpt: as §1

[30] = Dosage 3.7 μg/mℓ in drinking water
[31] = Dosage 7.5 μg/mℓ in drinking water
[32] = Dosage 15 μg/mℓ in drinking water
[33] = Dosage 30 μg/mℓ in drinking water
[34] = Dosage 60 μg/mℓ in drinking water

In the case of `CCC[C@@H]1C[C@@H](C(=O)N[C@@H]([C@H]2O[C@H](SC)[C@H](O)[C@@H](O)[C@H]2O)[C@@H](C)O)N(C)C1` [Lincomycin], the “Noninfective (%)” value [1, 30] is reported as 0%, the “Presence of T. hyo. 1st day” value [1, 30] is reported as 3/5 and the “Presence of T. hyo. 3rd day” value [1, 30] is reported as 5/5. For the same compound, the Lesion [1, 30] was 1/5, the “Noninfective (%)” value [1, 31] was 20% and the “Presence of T. hyo. 1st day” value [1, 31] was 0/5. For the same compound, the “Presence of T. hyo. 3rd day” value [1, 31] was 4/5, the Lesion [1, 31] was 0/5 and the “Noninfective (%)” value [1, 32] was 60%. For the same compound, the “Presence of T. hyo. 1st day” value [1, 32] was 0/5, the “Presence of T. hyo. 3rd day” value [1, 32] was 2/5 and the Lesion [1, 32] was 0/5. The “Noninfective (%)” value [1, 33] was 100%, the “Presence of T. hyo. 1st day” value [1, 33] was 0/5 and the “Presence of T. hyo. 3rd day” value [1, 33] was 0/5. The Lesion [1, 33] was 0/5, the “Noninfective (%)” value [1, 34] was 100% and the “Presence of T. hyo. 1st day” value [1, 34] was 0/3. For the same compound, the “Presence of T. hyo. 3rd day” value [1, 34] was 0/3, the Lesion [1, 34] was 0/3 and the ED50 ([1]; Table 1, CF-1 mice, administration through drinking water) was 13 µg/mL (≈ 32 µM). The Curative ratios ([1]; Dosage 3.7 μg/mℓ) was 0%, the Curative ratios ([1]; Dosage 7.5 μg/mℓ) was 20% and the Curative ratios ([1]; Dosage 15 μg/mℓ) was 60%. The Curative ratios ([1]; Dosage 30 μg/mℓ) was 100%, the Curative ratios ([1]; Dosage 60 μg/mℓ) was 100% and the “Fifty-percent effective dosages (ED50)” value ([1]; list after b26, CF-1 mice, administration through drinking water) was 13 µg/mL. It also gave an MIC [2] of 12.5 µg/mL (≈ 30.7 µM), an MIC [3] of 12.5 µg/mL (≈ 30.7 µM) and an MIC (Aspergillus niger KF-105) of over 100 µg/mL. For the same compound, the MIC [4] was 25 µg/mL (≈ 61.5 µM), the MIC [5] was over 100 µg/mL and the MIC [6] was 50 µg/mL (≈ 123 µM). The MIC [7] was 6.25 µg/mL (≈ 15.4 µM), the MIC (Candida albicans KF-1) was over 100 µg/mL and the MIC [8] was 3.12 µg/mL (≈ 7.67 µM). For the same compound, the MIC [9] was over 100 µg/mL, the MIC [10] was 12.5 µg/mL (≈ 30.7 µM) and the MIC [11] was 50 µg/mL (≈ 123 µM). For the same compound, the MIC [12] was over 100 µg/mL, the MIC [13] was 12.5 µg/mL (≈ 30.7 µM) and the MIC [14] was over 50 µg/mL. It also gave an MIC (M. pneumoniae KB-173) of 25 µg/mL (≈ 61.5 µM), an MIC [15] of 0.4 µg/mL (≈ 0.984 µM) and an MIC [16] of over 100 µg/mL. The MIC [17] was over 100 µg/mL, the MIC [18] was 12.5 µg/mL (≈ 30.7 µM) and the MIC [19] was over 100 µg/mL. For the same compound, the MIC [20] was over 100 µg/mL, the MIC [21] was over 100 µg/mL and the MIC [22] was over 100 µg/mL. It also gave an MIC (S. aureus KB 283 (MRSA)) of 6.25 µg/mL (≈ 15.4 µM), an MIC (S. aureus KB 285 (MRSA)) of 12.5 µg/mL (≈ 30.7 µM) and an MIC [23] of 3.12 µg/mL (≈ 7.67 µM). The MIC [24] was over 100 µg/mL, the MIC (Saccharomyces sake KF 26) was over 100 µg/mL and the MIC [25] was 1.56 µg/mL (≈ 3.84 µM). The MIC [26] was 1.56 µg/mL (≈ 3.84 µM), the MIC [27] was 0.2 µg/mL (≈ 0.492 µM) and the MIC [28] was over 100 µg/mL. The MIC [29] was over 100 µg/mL.

Converted amounts (≈) assume the structure as drawn. Where two headings read alike, the source gives them in different places.
